From the supplement of paper PMC4967469
Lines with a small IC50 respond at low doses; where the fit passes the top or lowest dose, that dose stands as a limit. The AUC spans the tested range (256-fold, ending at the top dose) of the same fit; the more sensitive the line, the further below 1. For some of these results: Any top dose called inferred comes from the curve model; the source does not state it. For some of these results: An entry number marks a drug with two screens in the source, which often give different values.

How the values were obtained:
Assay in all cases: Viability of human cancer cell lines after 72 h of drug (GDSC screen)
PI-103 = compound: Oc1cccc(-c2nc(N3CCOCC3)c3oc4ncccc4c3n2)c1 [PI-103]; conditions: top dose 10.24 µM
Protocol: (§1)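 Human cancer cell lines in 384-well plates, medium with 10% serum, drug for 72 h over a 256-fold dose range (nine 2-fold or five 4-fold steps up to the top dose). Adherent lines were fixed and stained with the nucleic acid dye Syto60, suspension lines read with resazurin; signal relative to control wells, capped at 0 and 100%. One two-parameter sigmoid per drug and line, fitted in a mixed model over all curves with the slope shared within a line.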

UNC0638 = compound: COc1cc2c(NC3CCN(C(C)C)CC3)nc(C3CCCCC3)nc2cc1OCCCN1CCCC1 [UNC0638]
Protocol: as §1

WH-4-023 = compound: COc1ccc(N(C(=O)Oc2c(C)cccc2C)c2ccnc(Nc3ccc(N4CCN(C)CC4)cc3)n2)c(OC)c1 [WH-4-023]; conditions: top dose 5.12 µM; top dose inferred
Protocol: as §1

GSK690693 = compound: CCn1c(-c2nonc2N)nc2c(C#CC(C)(C)O)ncc(OC[C@H]3CCCNC3)c21 [GSK690693]; conditions: top dose 10.24 µM; top dose inferred
Protocol: as §1

SB-505124 = compound: Cc1cccc(-c2[nH]c(C(C)(C)C)nc2-c2ccc3c(c2)OCO3)n1 [SB-505124]; conditions: top dose 10 µM; top dose inferred
Protocol: as §1

BX-795 = compound: O=C(NCCCNc1nc(Nc2cccc(NC(=O)N3CCCC3)c2)ncc1I)c1cccs1 [BX-795]; conditions: top dose 5 µM; top dose inferred
Protocol: as §1

Tretinoin = compound: CC1=C(/C=C/C(C)=C/C=C/C(C)=C/C(=O)O)C(C)(C)CCC1 [Tretinoin]; conditions: top dose 10 µM; top dose inferred
Protocol: as §1

[1] = top dose 40 µM, screen: GDSC drug entry 245
[2] = top dose 20 µM, screen: GDSC drug entry 1236, top dose inferred

Cell Line | AUC (PI-103) | IC50 (PI-103) [µM] | AUC (UNC0638; [1]) | IC50 (UNC0638; [1]) [µM] | AUC (WH-4-023) | IC50 (WH-4-023) [µM] | AUC (GSK690693) | IC50 (GSK690693) [µM] | AUC (SB-505124) | IC50 (SB-505124) [µM] | AUC (UNC0638; [2]) | IC50 (UNC0638; [2]) [µM] | AUC (BX-795) | IC50 (BX-795) [µM] | AUC (Tretinoin) | IC50 (Tretinoin) [µM]
BC-3 (B-cell lymphoma, suspension) | 0.974 | > 10.2 | 0.662 | 6.69 | 0.986 | > 5.12 | 0.833 | 5.64 |  |  |  |  |  |  |  | 
CAL-148 (breast, suspension) | 0.847 | 6.71 | 0.806 | 18.6 | 0.989 | > 5.12 | 0.464 | 0.513 |  |  |  |  |  |  |  | 
CP67-MEL (melanoma, adherent) |  |  |  |  | 0.794 | 4.93 |  |  |  |  |  |  |  |  |  | 
EW-12 (Ewing sarcoma, suspension) |  |  |  |  | 0.977 | > 5.12 |  |  |  |  |  |  |  |  |  | 
HCC1599 (breast, suspension) | 0.424 | 0.384 | 0.699 | 9.95 | 0.943 | > 5.12 | 0.713 | 2.82 |  |  |  |  |  |  |  | 
HCC-33 (small cell lung carcinoma, adherent) | 0.68 | 2.05 | 0.701 | 9.26 | 0.985 | > 5.12 | 0.927 | > 10.2 |  |  |  |  |  |  |  | 
KP-N-RT-BM-1 (neuroblastoma, semi-adherent) |  |  |  |  | 0.908 | > 5.12 |  |  |  |  |  |  |  |  |  | 
KP-N-YS (neuroblastoma, adherent) | 0.398 | 0.322 | 0.574 | 4.11 | 0.795 | 2.79 | 0.906 | > 10.2 |  |  |  |  |  |  |  | 
NCI-H128 (small cell lung carcinoma, suspension) |  |  |  |  | 0.956 | > 5.12 |  |  |  |  |  |  |  |  |  | 
NCI-H748 (small cell lung carcinoma, suspension) | 0.511 | 0.691 | 0.592 | 4.78 | 0.934 | > 5.12 | 0.958 | > 10.2 |  |  |  |  |  |  |  | 
NCI-H2171 (small cell lung carcinoma, suspension) | 0.448 | 0.471 | 0.856 | 25.6 | 0.987 | > 5.12 | 0.883 | 8.43 |  |  |  |  |  |  |  | 
NCI-H2196 (small cell lung carcinoma, adherent) | 0.518 | 0.719 | 0.777 | 16.9 | 0.965 | > 5.12 | 0.806 | 5.54 |  |  |  |  |  |  |  | 
NK-92MI (lymphoid neoplasm, suspension) |  |  |  |  | 0.777 | 1.92 |  |  |  |  |  |  |  |  |  | 
SCC-3 (B-cell lymphoma, suspension) | 0.656 | 1.53 | 0.79 | 12.8 | 0.994 | > 5.12 | 0.997 | > 10.2 |  |  |  |  |  |  |  | 
SIG-M5 (acute myeloid leukaemia, suspension) | 0.042 | < 0.04 | 0.554 | 3.38 | 0.983 | > 5.12 | 0.632 | 1.34 |  |  |  |  |  |  |  | 
SW1710 (bladder, adherent) | 0.308 | 0.182 | 0.856 | 33.9 |  |  | 0.936 | > 10.2 | 0.901 | > 10 | 0.873 | > 20 | 0.814 | 2.83 | 0.96 | > 10
SW1783 (glioma, adherent) | 0.859 | 7.22 | 0.871 | 31.4 |  |  | 0.989 | > 10.2 | 0.917 | > 10 | 0.891 | 19.3 | 0.876 | 4.13 | 0.991 | > 10
Saos-2 (osteosarcoma, adherent) | 0.971 | > 10.2 | 0.98 | > 40 |  |  | 0.98 | > 10.2 | 0.887 | > 10 | 0.846 | > 20 | 0.862 | > 5 | 0.876 | > 10
SiHa (cervix, adherent) | 0.987 | > 10.2 | 0.974 | > 40 |  |  | 0.987 | > 10.2 | 0.981 | > 10 | 0.972 | > 20 | 0.963 | > 5 | 0.979 | > 10
T47D (breast, adherent) | 0.528 | 0.795 | 0.695 | 11.9 |  |  | 0.563 | 1.04 | 0.884 | > 10 | 0.813 | 19.2 | 0.958 | > 5 | 0.949 | > 10
T84 (large intestine, adherent) | 0.981 | > 10.2 | 0.853 | 32.1 |  |  | 0.972 | > 10.2 | 0.966 | > 10 | 0.985 | > 20 | 0.989 | > 5 | 0.989 | > 10
T98G (glioma, adherent) | 0.954 | > 10.2 | 0.965 | > 40 |  |  | 0.978 | > 10.2 | 0.989 | > 10 | 0.982 | > 20 | 0.813 | 2.46 | 0.98 | > 10
TE-4 (oesophagus, adherent) | 0.967 | > 10.2 | 0.925 | > 40 |  |  | 0.93 | > 10.2 | 0.952 | > 10 | 0.739 | 6.01 | 0.9 | > 5 | 0.986 | > 10
TE-441-T (rhabdomyosarcoma, adherent) | 0.984 | > 10.2 |  |  | 0.983 | > 5.12 | 0.989 | > 10.2 |  |  |  |  |  |  |  | 
TGBC11TKB (stomach, adherent) | 0.991 | > 10.2 | 0.969 | > 40 |  |  | 0.964 | > 10.2 | 0.968 | > 10 | 0.992 | > 20 | 0.929 | > 5 | 0.979 | > 10
TK (B-cell lymphoma, suspension) | 0.24 | 0.124 | 0.753 | 12.3 |  |  | 0.868 | 7.96 | 0.978 | > 10 | 0.803 | 8.89 | 0.986 | > 5 | 0.988 | > 10
TMK-1 (stomach, adherent) | 0.89 | > 10.2 | 0.857 | 35.6 |  |  | 0.97 | > 10.2 | 0.984 | > 10 | 0.801 | 10.5 | 0.884 | > 5 | 0.986 | > 10
